From PubChem BioAssay (Tox21)
Values joined by “and” are separate entries in the source; they are usually repeats but may differ in a detail not shown here. Identical values can stand only once. The inconclusive results got no clear call from the source; some entries with a clear call stand among them for comparison. Where the call is inconclusive, the potency comes from a doubtful curve fit. Active and inactive are the calls of the source. Calls come from the whole dose curve; as a rule, active = well fitted curve in the direction sought with a large enough effect in the repeat runs; inconclusive = weak or mixed curves; inactive = no such curve, though single readings can be large; an effect the other way counts as inactive or inconclusive.
Potency is the fitted concentration of half-maximal effect; tags give direction and shape of the fitted curve.

System: not listed separately
Experiment: qHTS assay to identify small molecule antagonists of the estrogen receptor alpha (ER-alpha) signaling pathway using the BG1 cell line - cell viability counter screen (AID 743081);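 note: compound given together with 17beta-estradiol as the ER stimulus; nearly all actives have a fitted effect of over 45% in size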
Details: BG1Luc4E2 viability, CellTiter-Fluor, 22 h; activity change, negative = cytotoxicity: at 70.3 µM (top of the series)
For Cc1ccc(O)c(-n2nc3ccccc3n2)c1, the Potency was “inactive”. With CC(C)(C)C(=O)C1C(=O)c2ccccc2C1=O the Potency was inconclusive: 53.9 µM [cytotoxic, partial curve] and inconclusive: 61.1 µM [cytotoxic, single point]. With Clc1ccc(Nc2nnc(Cc3ccncc3)c3ccccc23)cc1 the Potency was “inactive”. For CCO[Si](CCCNC(N)=O)(OCC)OCC, the Potency was “inactive”. For COc1cccc(O)c1O, the Potency was inconclusive: 71.2 µM. For COc1cc(N)c(Cl)cc1C(=O)NC1CCN(CCCOc2ccc(F)cc2)CC1OC (centres undefined), the Potency was inconclusive: 22.7 µM [cytotoxic, single point]. With O=C1OC2(c3ccc(O)cc3Oc3cc(O)ccc32)c2ccccc21 the Potency was inconclusive: 23.7 µM [rising, partial curve] and inconclusive: 11.9 µM [rising, partial curve] and inconclusive: 30.6 µM [rising, partial curve]. With O=C(O)c1cc(O)c2ccccc2c1O the Potency was inconclusive: 19.3 µM [cytotoxic, partial curve]. For CN1CCCC(n2nc(Cc3ccc(Cl)cc3)c3ccccc3c2=O)CC1 (centres undefined), the Potency was inconclusive: 37.6 µM [cytotoxic, single point]. For Nc1c2c(nc3ccccc13)CCCC2, the Potency was inconclusive: 68.6 µM [cytotoxic, single point]. In the case of O=S(=O)(O)c1cc(S(=O)(=O)O)c2c(N=Nc3ccccc3)c(O)ccc2c1, the Potency is reported as active: 27.4 µM and active: 30.6 µM. In the case of Nc1ccccc1N, the Potency is reported as inconclusive: 62.6 µM [cytotoxic, partial curve] and inconclusive: 13.7 µM [cytotoxic, full curve].

Target: Aromatase (Homo sapiens) (UniProt P11511)
Chain of UniProt P11511 (P11511 whole entry, looked up): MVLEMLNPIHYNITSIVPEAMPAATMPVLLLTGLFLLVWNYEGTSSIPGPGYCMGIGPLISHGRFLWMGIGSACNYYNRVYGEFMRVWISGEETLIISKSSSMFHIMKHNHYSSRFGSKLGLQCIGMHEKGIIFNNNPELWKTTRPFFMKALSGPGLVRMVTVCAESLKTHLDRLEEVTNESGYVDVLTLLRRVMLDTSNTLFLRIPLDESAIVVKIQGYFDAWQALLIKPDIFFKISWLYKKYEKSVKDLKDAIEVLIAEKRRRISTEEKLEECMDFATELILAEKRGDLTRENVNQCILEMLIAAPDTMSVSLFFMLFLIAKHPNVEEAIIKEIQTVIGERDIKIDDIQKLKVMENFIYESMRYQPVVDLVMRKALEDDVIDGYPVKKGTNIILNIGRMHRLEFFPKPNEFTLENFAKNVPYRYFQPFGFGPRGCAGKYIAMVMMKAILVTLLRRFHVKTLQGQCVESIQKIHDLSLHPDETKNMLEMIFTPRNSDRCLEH
Experiment: qHTS assay to identify aromatase inhibitors (AID 743083); note: nearly all actives have a fitted effect of over 55% in size
Details: MCF-7 aro ERE, testosterone-driven ERE luciferase, 24 h; series mostly up to 70.3 µM
In the case of NC(=O)C(=O)N/N=C/c1ccc([N+](=O)[O-])o1, the Potency is reported as inconclusive: 33.5 µM [inhibitor, single point]. In the case of CC[C@H](C)COC(=O)/C=C/c1ccc(N=Cc2ccc(OC)cc2)cc1, the Potency is reported as inconclusive: 48.5 µM [inhibitor, partial curve, poor fit]. With O=C(CCN1CCC(c2ccccc2)C1)c1ccc2c(c1)OCCO2 (centres undefined) the Potency was inconclusive: 33.5 µM [inhibitor, single point]. With CCN(Cc1c(F)cccc1Cl)c1c([N+](=O)[O-])cc(C(F)(F)F)cc1[N+](=O)[O-] the Potency was active: 27.3 µM. For C1CN(SSN2CCOCC2)CCO1, the Potency was inconclusive: 67.9 µM [inhibitor, single point] and inconclusive: 68.6 µM [inhibitor, single point]. For Nc1ccc(Oc2ccc(N)c(N)c2)cc1, the Potency was inconclusive: 68.6 µM [inhibitor, single point].

System: not listed separately
Experiment: qHTS assay to identify aromatase inhibitors - cell viability counter screen (AID 743084);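 note: cells stimulated with testosterone during compound exposure; nearly all actives have a fitted effect of over 55% in size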
Details: MCF-7 aro ERE viability, CellTiter-Fluor, 24 h; activity change, negative = cytotoxicity: at 70.3 µM (top of the series)
In the case of CC(C)(C)C(=O)C1C(=O)c2ccccc2C1=O, the Potency is reported as inconclusive: 60.5 µM [cytotoxic, partial curve] and inconclusive: 68.6 µM [cytotoxic, single point]. With C=C/C(C)=C/C/C=C(\C)CCC=C(C)C the Potency was inconclusive: 68.6 µM [cytotoxic, single point]. With NC(=O)C(=O)N/N=C/c1ccc([N+](=O)[O-])o1 the Potency was inconclusive: 33.5 µM [cytotoxic, single point]. For COc1cccc(O)c1O, the Potency was inconclusive: 71.2 µM [cytotoxic, single point]. In the case of CCCCOCCOC(=O)c1ccccc1C(=O)OCCOCCCC, the Potency is reported as inconclusive: 67.1 µM [cytotoxic, single point]. For CCOC(=O)[C@H](CCc1ccccc1)N[C@H]1CCc2ccccc2N(CC(=O)O)C1=O, the Potency was inconclusive: 23.7 µM [cytotoxic, partial curve]. With CC[C@H](C)COC(=O)/C=C/c1ccc(N=Cc2ccc(OC)cc2)cc1 the Potency was inconclusive: 61 µM [cytotoxic]. For O=S(=O)(O)c1cc(S(=O)(=O)O)c2c(N=Nc3ccccc3)c(O)ccc2c1, the Potency was active: 24.4 µM and active: 27.3 µM. With O=C(CCN1CCC(c2ccccc2)C1)c1ccc2c(c1)OCCO2 (centres undefined) the Potency was inconclusive: 33.5 µM [cytotoxic, single point]. In the case of C1CN(SSN2CCOCC2)CCO1, the Potency is reported as inconclusive: 67.9 µM [cytotoxic, single point] and active: 61.1 µM. For Nc1ccccc1N, the Potency was inconclusive: 7.7 µM [cytotoxic, full curve].
